Measured values from article PMC5892938.
Some of the results follow. The source does not settle which construct or isoform was used.

The sequences below were run against GST-SBP-ILF3 (Homo sapiens) (UniProt Q12906) (assay: targeted RNA Bind-n-Seq). Settings: RBNS binding buffer: 25 mM Tris pH 7.5, 150 mM KCl, 3 mM MgCl2, 0.1% Tween, 0.5 mg/mL BSA, 1 mM DTT; 27 nM protein, 750 pM RNA pool; temperature not stated; high values mean tight binding; sequences stand for … in GGGUAAAAGCGAGGUGAA…CGGGACAAGUAUUAUGGG.
“GGUGUUGGUGUUGGAUCCUAACACCAGCGC [gtspaired]” was tested, and the binding signal (log2 fold change) was -0.476.
“UUUUUUUUUUGAGAGCGAGUCGUUCUCCUA [tttttgagapaired]” was tested, and the binding signal (log2 fold change) was 0.133.
Sequence “GGUGUGUGUGUUGGUCUCUAACACAUAUAC [gtspaired]” has a binding signal (log2 fold change) of -0.664.
“UUUUUUUUUUGAGACUGAGUCAGUUUCCAG [tttttgagapaired]” was tested, and the binding signal (log2 fold change) was 0.358.
“UUUUUUUUUUGAGAUGGUAACUAUCUCCUA [tttttgagapaired]” was tested, and the binding signal (log2 fold change) was 0.247.
Sequence “UUUUUUUUUUGAGACGGGCUCCGUCUCCUG [tttttgagapaired]” has a binding signal (log2 fold change) of 0.48.
Work on “GUGUGUGGUGUUGGCCCCUAACACCAUACG [gtspaired]” yielded a binding signal (log2 fold change) of -0.224.
“GUGUGGUGUGUUGGCAUCUAACACACUACA [gtspaired]” gave a binding signal (log2 fold change) of -0.523.
In the case of “GGUGGUGGUGUUGGUAUCUAACACCGCUAC [gtspaired]”, the binding signal (log2 fold change) was -1.1.
“UUUUUUUUUUGAGAGCGGGGCGCUCUCCUA [tttttgagapaired]” gave a binding signal (log2 fold change) of 0.373.
“GGUGGUUGUGUUGGUGUCUAACACAGCCGC [gtspaired]” showed a binding signal (log2 fold change) of -0.588.
“GGUGGUUGUGUUGGCCCCUAACACAGCUAC [gtspaired]” gave a binding signal (log2 fold change) of -0.161.
“GGUGGUGGUGUUGGCACCUAACACCGCCGC [gtspaired]” gave a binding signal (log2 fold change) of -0.371.
For “UUUUUUUUUUGAGAUGGAAACCAUUUCCAG [tttttgagapaired]”, the binding signal (log2 fold change) was 0.188.
“UUUUUUUUUUGAGAGUGUGACAUUCUCCAG [tttttgagapaired]” was tested, and the binding signal (log2 fold change) was 0.245.
Work on “UUUUUUUUUUGAGAUGGGUCCUAUCUCCAG [tttttgagapaired]” yielded a binding signal (log2 fold change) of 0.784.
Sequence “GUGGUUGGUGUUGGCACCUAACACCGACCA [gtspaired]” has a binding signal (log2 fold change) of -0.266.
For “GGUGUGUGUGUUGGCGUCUAACACACGCGC [gtspaired]”, the binding signal (log2 fold change) was -0.412.
With “GUGUGUGGUGUUGGACCCUAACACCACGCA [gtspaired]” the binding signal (log2 fold change) was -0.262.
With “UUUUUUUUUUGAGAGGGACACCCUCUCCUA [tttttgagapaired]” the binding signal (log2 fold change) was 0.522.
Sequence “GUGGUGUGUGUUGGAUCCUAACACACGCCG [gtspaired]” has a binding signal (log2 fold change) of -0.719.
Work on “GUGUGUGGUGUUGGCGUCUAACACCAUACG [gtspaired]” yielded a binding signal (log2 fold change) of -0.53.
“UUUUUUUUUUGAGACUGGAGCAGUCUCCUA [tttttgagapaired]” showed a binding signal (log2 fold change) of 0.506.
For “UUUUUUUUUUGAGAUCGGGUCGAUCUCCGG [tttttgagapaired]”, the binding signal (log2 fold change) was 0.229.
“UUUUUUUUUUGAGACGGCUACCGUCUUCUG [tttttgagapaired]” gave a binding signal (log2 fold change) of 0.864.
For “GUUGUGUGUGUUGGACUCUAACACACACAG [gtspaired]”, the binding signal (log2 fold change) was -0.392.
“UUUUUUUUUUGAGAGGGAACCCCUUUCCAG [tttttgagapaired]” showed a binding signal (log2 fold change) of -0.0258.
With “UUUUUUUUUUGAGACGGGGACCGUCUCCAG [tttttgagapaired]” the binding signal (log2 fold change) was 0.486.
Sequence “GGUGGUGGUGUUGGAGCCUAACACCGCUAC [gtspaired]” has a binding signal (log2 fold change) of -0.544.
Work on “UUUUUUUUUUGAGAUGGGAUCCAUCUUCUA [tttttgagapaired]” yielded a binding signal (log2 fold change) of -0.109.
“GUGUGUGGUGUUGGAGCCUAACACCAUACA [gtspaired]” showed a binding signal (log2 fold change) of 0.0506.
“GUGUGGUGUGUUGGCCUCUAACACACCAUA [gtspaired]” was tested, and the binding signal (log2 fold change) was -0.803.
With “GUGUGUUGUGUUGGUGCCUAACACAACGCG [gtspaired]” the binding signal (log2 fold change) was -0.724.
Sequence “GUGUGUGGUGUUGGUCCCUAACACCACGCG [gtspaired]” has a binding signal (log2 fold change) of -0.538.
For “GGUGGUGGUGUUGGACUCUAACACCGCUAC [gtspaired]”, the binding signal (log2 fold change) was -0.417.
With “UUUUUUUUUUGAGACCGGAUCGGUCUCCAG [tttttgagapaired]” the binding signal (log2 fold change) was 0.387.
“UUUUUUUUUUGAGAUGGAGACCAUCUUCUG [tttttgagapaired]” showed a binding signal (log2 fold change) of 0.243.
For “UUUUUUUUUUGAGACGGAGACCGUUUCCGG [tttttgagapaired]”, the binding signal (log2 fold change) was 0.781.
Work on “UUUUUUUUUUGAGAUGGACUCCGUCUCCAG [tttttgagapaired]” yielded a binding signal (log2 fold change) of 0.257.
“UUUUUUUUUUGAGACGGGAUCUGUCUCCGG [tttttgagapaired]” showed a binding signal (log2 fold change) of 0.536.
For “GGUGUGUGUGUUGGUCCCUAACACAUAUAC [gtspaired]”, the binding signal (log2 fold change) was -0.691.
With “GUGUGGUGUGUUGGCCCCUAACACAUCACA [gtspaired]” the binding signal (log2 fold change) was -0.144.
“GUUGGUGGUGUUGGCGCCUAACACCACCAG [gtspaired]” gave a binding signal (log2 fold change) of -0.252.
For “UUUUUUUUUUGAGAGCGAGCCGCUCUUCUA [tttttgagapaired]”, the binding signal (log2 fold change) was -0.0383.
With “GUGGUGUGUGUUGGUCUCUAACACACGCCG [gtspaired]” the binding signal (log2 fold change) was -0.73.
In the case of “UUUUUUUUUUGAGACGGGGGCCGUUUCCUA [tttttgagapaired]”, the binding signal (log2 fold change) was 0.723.
Sequence “UUUUUUUUUUGAGACUGUGUCAGUCUCCUG [tttttgagapaired]” has a binding signal (log2 fold change) of 0.891.
With “UUUUUUUUUUGAGAACGUAUCGUUCUCCUA [tttttgagapaired]” the binding signal (log2 fold change) was -0.114.
Sequence “UUUUUUUUUUGAGAGCGUACCGCUCUUCUA [tttttgagapaired]” has a binding signal (log2 fold change) of 0.433.
“UUUUUUUUUUGAGAAGGGGUCCUUCUCCAG [tttttgagapaired]” gave a binding signal (log2 fold change) of 0.33.
In the case of “UUUUUUUUUUGAGACGGGGACCGUCUUCUA [tttttgagapaired]”, the binding signal (log2 fold change) was 0.3.
In the case of “GUGUGUUGUGUUGGUGUCUAACACAACGCA [gtspaired]”, the binding signal (log2 fold change) was -0.66.
“UUUUUUUUUUGAGACAGGGAUAAUAAAAAA [ttttgagaunpaired]” was tested, and the binding signal (log2 fold change) was -0.755.
“UUCUCUUCUCCUCCAGCGGAGGGGGAGGGA [ctspaired]” was tested, and the binding signal (log2 fold change) was -0.299.
In the case of “UUUUUUUUUUGAGAGGGUAACCCUCUCCUA [tttttgagapaired]”, the binding signal (log2 fold change) was -0.00563.
“UUUUUUUUUUGAGACUGUAUCAGUCUCCAG [tttttgagapaired]” showed a binding signal (log2 fold change) of 0.269.
“UUUUUUUUUUGAGACUGAUACAGUCUCCUG [tttttgagapaired]” gave a binding signal (log2 fold change) of 0.527.
For “UUUUUUUUUUGAGACUGAACCAGUCUCCAG [tttttgagapaired]”, the binding signal (log2 fold change) was 0.294.
“UUUUUUUUUUGAGACGGCUUCCGUCUCCUA [tttttgagapaired]” was tested, and the binding signal (log2 fold change) was 0.492.
In the case of “UUUUUUUUUUGAGAUGGAAGCCAUCUCCUG [tttttgagapaired]”, the binding signal (log2 fold change) was 0.0463.
“GGUGUGUGUGUUGGAAUCUAACACAUAUAC [gtspaired]” showed a binding signal (log2 fold change) of -0.338.
“GUGGUGUGUGUUGGAACCUAACACACGCUA [gtspaired]” showed a binding signal (log2 fold change) of -0.348.
With “UUUUUUUUUUGAGAAGGUAUCCUUCUCCAG [tttttgagapaired]” the binding signal (log2 fold change) was -0.211.
“UUUUUUUUUUGAGAGGGGGGCCCUCUCCUA [tttttgagapaired]” gave a binding signal (log2 fold change) of 0.605.
“UUUUUUUUUUGAGAUGGUAACCAUCUUCUG [tttttgagapaired]” showed a binding signal (log2 fold change) of 0.291.
“UUUUUUUUUUGAGACGGGAACCGUCUCCGG [tttttgagapaired]” gave a binding signal (log2 fold change) of 0.447.
Sequence “UUCUCUCUUCCUCCAGGGGAGGAGGGGAGA [ctspaired]” has a binding signal (log2 fold change) of -0.315.
For “GUUGGUGGUGUUGGAGUCUAACACCGCCAG [gtspaired]”, the binding signal (log2 fold change) was -0.218.
Work on “GUGUGUGGUGUUGGCUUCUAACACCGCGCG [gtspaired]” yielded a binding signal (log2 fold change) of -0.695.
With “UUUUUUUUUUGAGACCGAGGCGGUCUUCUA [tttttgagapaired]” the binding signal (log2 fold change) was 0.502.
“GGUGUGUGUGUUGGCACCUAACACAUACGC [gtspaired]” was tested, and the binding signal (log2 fold change) was -0.57.
“UUUUUUUUUUGAGACUGGGACAGUUUUCUA [tttttgagapaired]” gave a binding signal (log2 fold change) of 0.422.
With “UUUUUUUUUUGAGACGGGAUCUGUCUCCUG [tttttgagapaired]” the binding signal (log2 fold change) was 0.769.
“UUUUUUUUUUGAGAUGGAUCCUAUCUCCAG [tttttgagapaired]” showed a binding signal (log2 fold change) of 0.0205.
“GUUGGUGGUGUUGGCUUCUAACACCGCCGA [gtspaired]” gave a binding signal (log2 fold change) of -0.523.
In the case of “UUUUUUUUUUGAGAGGGCGACCCUUUCCGG [tttttgagapaired]”, the binding signal (log2 fold change) was 0.401.
In the case of “UUUUUUUUUUGAGAUGGGUGCCAUCUUCUG [tttttgagapaired]”, the binding signal (log2 fold change) was 0.453.
“UUUUUUUUUUGAGAUCGAGCCGAUCUCCAG [tttttgagapaired]” showed a binding signal (log2 fold change) of 0.279.
“UUUUUUUUUUGAGAUGGGGCCCAUCUCCAG [tttttgagapaired]” showed a binding signal (log2 fold change) of 0.57.
For “GUGUGUGGUGUUGGCGCCUAACACCGCGCG [gtspaired]”, the binding signal (log2 fold change) was -0.532.
Work on “UUUUUUUUUUGAGAUCGAACCGAUCUCCUA [tttttgagapaired]” yielded a binding signal (log2 fold change) of -0.0589.
“UUUUUUUUUUGAGACGGUAACCGUUUCCUG [tttttgagapaired]” showed a binding signal (log2 fold change) of 0.463.
In the case of “UUUUUUUUUUGAGACCGGGUCGGUCUUCUG [tttttgagapaired]”, the binding signal (log2 fold change) was 0.685.
In the case of “GUGGUGUGUGUUGGAUUCUAACACACGCCG [gtspaired]”, the binding signal (log2 fold change) was -0.685.
“UUUUUUUUUUGAGAGGGGGACCCUCUCCUA [tttttgagapaired]” was tested, and the binding signal (log2 fold change) was 0.24.
In the case of “GUGUGUGGUGUUGGUGCCUAACACCAUACG [gtspaired]”, the binding signal (log2 fold change) was -0.436.
For “UUUUUUUUUUGAGAUGGAUGCCGUCUCCUG [tttttgagapaired]”, the binding signal (log2 fold change) was 0.627.
“GUGGUUGGUGUUGGUCCCUAACACCAAUCA [gtspaired]” showed a binding signal (log2 fold change) of -0.218.
“UUUUUUUUUUGAGAGGGGUGCCCUCUCCGG [tttttgagapaired]” gave a binding signal (log2 fold change) of 0.539.
In the case of “UUUUUUUUUUGAGAUGGGAUCUAUCUCCUA [tttttgagapaired]”, the binding signal (log2 fold change) was -0.00741.
“GGUUGGUGUGUUGGAUUCUAACACAUCGAC [gtspaired]” gave a binding signal (log2 fold change) of -0.843.
In the case of “UUUUUUUUUUGAGACGGAAUCCGUCUCCUG [tttttgagapaired]”, the binding signal (log2 fold change) was 0.203.
“UUUUUUUUUUGAGAGUGAAACACUCUCCGG [tttttgagapaired]” gave a binding signal (log2 fold change) of 0.00839.
For “GGUUGGUGUGUUGGCCCCUAACACAUCAAC [gtspaired]”, the binding signal (log2 fold change) was -0.15.
“UUUUUUUUUUGAGACUGAAGCAGUUUUCUA [tttttgagapaired]” gave a binding signal (log2 fold change) of -0.0501.
Sequence “UUUUUUUUUUGAGAGGGUGGCCCUCUCCGG [tttttgagapaired]” has a binding signal (log2 fold change) of 0.858.
Sequence “GGUGGUGGUGUUGGAACCUAACACCAUCGC [gtspaired]” has a binding signal (log2 fold change) of -0.307.
With “UUUUUUUUUUGAGAACGGAUCGUUCUCCAG [tttttgagapaired]” the binding signal (log2 fold change) was 0.194.
“UUUUUUUUUUGAGACGGAUCCCGUCUCCUG [tttttgagapaired]” was tested, and the binding signal (log2 fold change) was 0.841.
In the case of “UUUUUUUUUUGAGAUCGAGACGGUCUUCUA [tttttgagapaired]”, the binding signal (log2 fold change) was 0.189.
“GGUUGGUGUGUUGGUACCUAACACAUCGAC [gtspaired]” showed a binding signal (log2 fold change) of -0.791.
With “UUUUUUUUUUGAGACGGCUUCCGUCUCCUG [tttttgagapaired]” the binding signal (log2 fold change) was 0.605.
With “UUUUUUUUUUGAGAGGGGGACCCUCUCCUG [tttttgagapaired]” the binding signal (log2 fold change) was 0.435.
